Results from the antibiotic and cytotoxicity screens of Wong et al. (2023).
The other results are listed elsewhere or left out.

Test system: HSkMC (human skeletal muscle cells)
Assay: cytotoxicity call (relative viability < 0.9)
Conditions: 10 µM

SMILES	cytotoxicity call
C[C@@H]1CCCCO[C@H](CN(C)C(=O)Cc2ccccc2)[C@H](C)CN([C@@H](C)CO)C(=O)c2cc(NS(=O)(=O)c3ccc(F)cc3)ccc2O1	inactive
O=C(C[C@@H]1CC[C@@H]2[C@H](COC[C@H](O)CN2S(=O)(=O)c2ccccc2)O1)NCc1ccc(-c2ccccc2)cc1	inactive
COCC#Cc1ccc([C@@H]2[C@@H](CO)N3C(=O)CN(C(=O)c4cccnc4)C[C@@H]23)cc1	inactive
C[C@@H]1CN([C@H](C)CO)C(=O)Cc2cc(NS(=O)(=O)c3cccs3)ccc2O[C@H]1CN(C)S(C)(=O)=O	inactive
C[S+](C)CC[C@H](N)C(=O)O	inactive
Nc1ncnc2c1ncn2[C@@H]1O[C@H](C[C@@H](N)CC[C@H](N)C(=O)O)[C@@H](O)[C@H]1O	inactive
CN(C)CC#Cc1ccc([C@H]2[C@@H](CO)N3C(=O)CN(C(=O)c4cccnc4)C[C@@H]23)cc1	inactive
C[C@@H]1CCCCO[C@H](CN(C)C(=O)C2CCCCC2)[C@@H](C)CN([C@H](C)CO)C(=O)c2cc(NS(=O)(=O)c3cccs3)ccc2O1	inactive
CC(=O)OCC(=O)C1(OC(C)=O)C(C)CC2C3CC(F)C4=CC(=O)C=CC4(C)C3(F)C(O)CC21C (stereo unspecified)	inactive
COc1ccc(S(=O)(=O)Nc2ccc3c(c2)CC(=O)N([C@@H](C)CO)C[C@@H](C)[C@H](CN(C)S(=O)(=O)c2cccs2)O3)cc1	inactive
Cc1ccc(S(=O)(=O)N(C)C[C@H]2Oc3ccc(NC(=O)NC(C)C)cc3C(=O)N([C@H](C)CO)C[C@@H]2C)cc1	inactive
C[C@@H]1CCCCO[C@H](CN(C)Cc2ccc(Cl)c(Cl)c2)[C@@H](C)CN([C@H](C)CO)C(=O)c2cc(NS(=O)(=O)c3cn(C)cn3)ccc2O1	inactive
C[C@H](CO)N1C[C@H](C)[C@H](CN(C)C(=O)CN(C)C)Oc2cc(C#C[C@@H](C)O)ccc2S1(=O)=O	inactive
O=c1[nH]c(=O)c2ccccc2o1	inactive
O=C1C(=O)N(C[C@@H](O)COc2cccc3ccccc23)C(=O)C(=O)N1C[C@@H](O)COc1cccc2ccccc12	inactive
O=C(N[C@H]1CC[C@H](CCNS(=O)(=O)c2ccccc2)O[C@@H]1CO)c1cnccn1	inactive
Cn1c(=O)oc2cc(S(=O)(=O)N3CCC[C@H](C(=O)NN4CCOCC4)C3)ccc21	inactive
C[C@@H]1CN([C@H](C)CO)C(=O)c2cc(-c3ccc(C(=O)N(C)C)cc3)cnc2O[C@H]1CN(C)C(=O)CN(C)C	inactive
COc1ccc(NC(=O)N(C)C[C@H]2OCCCC[C@H](C)Oc3ccc(NC(=O)c4ccccc4)cc3C(=O)N([C@H](C)CO)C[C@H]2C)cc1	inactive
O=C(C[C@H]1CC[C@@H]2[C@H](COC[C@@H](O)CN2C(=O)Nc2ccc(C(F)(F)F)cc2)O1)NCc1ccncn1	inactive
COc1ccc(NC(=O)Nc2ccc3c(c2)C(=O)N([C@H](C)CO)C[C@H](C)[C@H](CN(C)Cc2ccc(C(=O)O)cc2)OCCCC[C@@H](C)O3)cc1	inactive
Cc1noc(C)c1S(=O)(=O)Nc1ccc2c(c1)C(=O)N([C@H](C)CO)C[C@@H](C)[C@@H](CN(C)Cc1ccc(Oc3ccccc3)cc1)O2	inactive
C[C@@H]1CCCCO[C@H](CN(C)S(C)(=O)=O)[C@@H](C)CN([C@H](C)CO)C(=O)c2cc(NC(=O)Nc3cccc4ccccc34)ccc2O1	inactive
CC(C)NC(=O)Nc1ccc2c(c1)CC(=O)N([C@@H](C)CO)C[C@H](C)[C@@H](CN(C)C(=O)NC1CCCCC1)O2	inactive
O=c1[nH]c(=O)n([C@H]2C[C@H](O)[C@@H](CO)O2)cc1Br	inactive
C[C@@H]1CN([C@H](C)CO)C(=O)Cc2cc(NC(=O)CCCCCC(=O)Nc3ccccc3N)ccc2O[C@H]1CN(C)CC1CCCCC1	inactive
CNCCc1ccccn1	inactive
CCCC#Cc1ccc2c(c1)O[C@@H](CN(C)C(=O)c1cnccn1)[C@H](C)CN([C@@H](C)CO)S2(=O)=O	inactive
CC(C)NC(=O)Nc1ccc2c(c1)C(=O)N([C@H](C)CO)C[C@H](C)[C@@H](CN(C)Cc1ccccc1)OCCCC[C@@H](C)O2	inactive

Test system: HepG2
Assay: cytotoxicity call (relative viability < 0.9)
Conditions: 10 µM

SMILES	cytotoxicity call
CCCCCCCCCCCCCCCCOc1nc2ccc(C)cc2c(=O)o1	inactive
C[C@H](CO)N1C[C@H](C)[C@H](CN(C)C(=O)CN2CCOCC2)Oc2ncc(-c3cncnc3)cc2C1=O	inactive
C[C@H]1CN([C@@H](C)CO)S(=O)(=O)c2ccc(C#CC3CC3)cc2O[C@@H]1CN(C)C(=O)Cc1ccncc1	inactive
C[C@H](CO)N1C[C@H](C)[C@H](CN(C)Cc2ccc(C(=O)O)cc2)Oc2c(NC(=O)c3ccncc3)cccc2C1=O	inactive
C[C@H]1CN([C@@H](C)CO)C(=O)c2cccc(NC(=O)C3CCOCC3)c2O[C@H]1CN(C)S(=O)(=O)c1ccc(F)cc1	inactive
Cc1ccc(S(=O)(=O)Nc2ccc3c(c2)C(=O)N([C@H](C)CO)C[C@H](C)[C@@H](CN(C)Cc2ccc(Cl)c(Cl)c2)O3)cc1	active
O=C(C[C@@H]1CC[C@@H]2[C@H](COC[C@@H](O)CN2C(=O)Nc2ccc(F)cc2)O1)NCCCN1CCOCC1	inactive
C[C@@H]1CN([C@@H](C)CO)C(=O)c2cc(NS(C)(=O)=O)ccc2O[C@@H](C)CCCCO[C@@H]1CN(C)S(=O)(=O)c1cccs1	inactive
C[C@@H]1CN([C@H](C)CO)C(=O)Cc2cc(NC(=O)c3ccncc3)ccc2O[C@H]1CN(C)C(=O)NC1CCCCC1	inactive
CCCCC[C@@H](O)C[C@@H](O)CC(=O)O[C@@H](CCCCC)C[C@@H](O)CC(=O)OC[C@@H](O)[C@@H](O)[C@@H](O)[C@@H](O)CO	inactive
COc1ccc(S(=O)(=O)Nc2ccc3c(c2)C(=O)N([C@H](C)CO)C[C@@H](C)[C@@H](CN(C)C(=O)Nc2c(C)noc2C)O3)cc1	inactive
C[C@@H]1CCCCO[C@H](CN(C)C(=O)Cc2ccccc2)[C@H](C)CN([C@@H](C)CO)C(=O)c2cc(NS(=O)(=O)c3ccc(F)cc3)ccc2O1	inactive
O=C(C[C@@H]1CC[C@@H]2[C@H](COC[C@H](O)CN2S(=O)(=O)c2ccccc2)O1)NCc1ccc(-c2ccccc2)cc1	inactive
COCC#Cc1ccc([C@@H]2[C@@H](CO)N3C(=O)CN(C(=O)c4cccnc4)C[C@@H]23)cc1	inactive
C[C@@H]1CN([C@H](C)CO)C(=O)Cc2cc(NS(=O)(=O)c3cccs3)ccc2O[C@H]1CN(C)S(C)(=O)=O	inactive
C[S+](C)CC[C@H](N)C(=O)O	inactive
Nc1ncnc2c1ncn2[C@@H]1O[C@H](C[C@@H](N)CC[C@H](N)C(=O)O)[C@@H](O)[C@H]1O	inactive
CN(C)CC#Cc1ccc([C@H]2[C@@H](CO)N3C(=O)CN(C(=O)c4cccnc4)C[C@@H]23)cc1	inactive
C[C@@H]1CCCCO[C@H](CN(C)C(=O)C2CCCCC2)[C@@H](C)CN([C@H](C)CO)C(=O)c2cc(NS(=O)(=O)c3cccs3)ccc2O1	inactive

SMILES	cytotoxicity call
CC(=O)OCC(=O)C1(OC(C)=O)C(C)CC2C3CC(F)C4=CC(=O)C=CC4(C)C3(F)C(O)CC21C (stereo unspecified)	inactive
COc1ccc(S(=O)(=O)Nc2ccc3c(c2)CC(=O)N([C@@H](C)CO)C[C@@H](C)[C@H](CN(C)S(=O)(=O)c2cccs2)O3)cc1	inactive
Cc1ccc(S(=O)(=O)N(C)C[C@H]2Oc3ccc(NC(=O)NC(C)C)cc3C(=O)N([C@H](C)CO)C[C@@H]2C)cc1	inactive
C[C@@H]1CCCCO[C@H](CN(C)Cc2ccc(Cl)c(Cl)c2)[C@@H](C)CN([C@H](C)CO)C(=O)c2cc(NS(=O)(=O)c3cn(C)cn3)ccc2O1	inactive
C[C@H](CO)N1C[C@H](C)[C@H](CN(C)C(=O)CN(C)C)Oc2cc(C#C[C@@H](C)O)ccc2S1(=O)=O	inactive
O=c1[nH]c(=O)c2ccccc2o1	inactive
O=C1C(=O)N(C[C@@H](O)COc2cccc3ccccc23)C(=O)C(=O)N1C[C@@H](O)COc1cccc2ccccc12	inactive
O=C(N[C@H]1CC[C@H](CCNS(=O)(=O)c2ccccc2)O[C@@H]1CO)c1cnccn1	inactive
Cn1c(=O)oc2cc(S(=O)(=O)N3CCC[C@H](C(=O)NN4CCOCC4)C3)ccc21	inactive
C[C@@H]1CN([C@H](C)CO)C(=O)c2cc(-c3ccc(C(=O)N(C)C)cc3)cnc2O[C@H]1CN(C)C(=O)CN(C)C	inactive
COc1ccc(NC(=O)N(C)C[C@H]2OCCCC[C@H](C)Oc3ccc(NC(=O)c4ccccc4)cc3C(=O)N([C@H](C)CO)C[C@H]2C)cc1	inactive
O=C(C[C@H]1CC[C@@H]2[C@H](COC[C@@H](O)CN2C(=O)Nc2ccc(C(F)(F)F)cc2)O1)NCc1ccncn1	inactive
COc1ccc(NC(=O)Nc2ccc3c(c2)C(=O)N([C@H](C)CO)C[C@H](C)[C@H](CN(C)Cc2ccc(C(=O)O)cc2)OCCCC[C@@H](C)O3)cc1	inactive
Cc1noc(C)c1S(=O)(=O)Nc1ccc2c(c1)C(=O)N([C@H](C)CO)C[C@@H](C)[C@@H](CN(C)Cc1ccc(Oc3ccccc3)cc1)O2	inactive
C[C@@H]1CCCCO[C@H](CN(C)S(C)(=O)=O)[C@@H](C)CN([C@H](C)CO)C(=O)c2cc(NC(=O)Nc3cccc4ccccc34)ccc2O1	inactive
CC(C)NC(=O)Nc1ccc2c(c1)CC(=O)N([C@@H](C)CO)C[C@H](C)[C@@H](CN(C)C(=O)NC1CCCCC1)O2	inactive
O=c1[nH]c(=O)n([C@H]2C[C@H](O)[C@@H](CO)O2)cc1Br	inactive
C[C@@H]1CN([C@H](C)CO)C(=O)Cc2cc(NC(=O)CCCCCC(=O)Nc3ccccc3N)ccc2O[C@H]1CN(C)CC1CCCCC1	inactive
